The whole screen tested about 420,000 compounds, of which about 64,000 (15%) were called active. Inconclusive means that the source gave no clear call. Such entries were picked first, then a sample of the others. Calls come from the whole dose curve; as a rule, active = well fitted inhibition curve with a large enough effect; inconclusive = small, poorly fitted or top-dose-only effect; inactive = flat fitted curve, though single readings scatter. No potency is given beside an inconclusive call; the fits are too rough.
Assay: qHTS for Inhibitors of human tyrosyl-DNA phosphodiesterase 1 (TDP1): qHTS in cells in absence of CPT; note: nearly all actives have a fitted effect of over 55% in size
Details: DT40 Tdp1-/- hTDP1 cells, no CPT, ATP luminescence, 48 h; series mostly up to 46.2 µM
In short: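 Cells were dispensed at 400 per well, compounds added by pin tool, plates incubated ≥48 hr at 37 °C, then CellTiter-Glo added for 30 min at room temperature before luminescence reading. Line: DT40 Tdp1-/- complemented with hTDP1; camptothecin omitted.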
Potency is the fitted concentration of half-maximal effect; tags give direction and shape of the fitted curve.

With `O=c1c(-c2ccco2)nc2ccccc2n1C(CCc1ccccc1)c1nc2ccccc2[nH]1` (stereo unspecified) as the molecule, how does the Potency read?
The Potency was inconclusive [inhibitor, single point].

With `COc1ccc(-c2[nH]ncc2CN(C)Cc2ccccn2)c(OC)c1` as the molecule, how does the Potency read?
The Potency was inconclusive [inhibitor, single point].

Which Potency does the source give for `N#C/C(=C\c1ccc([N+](=O)[O-])cc1)C(=O)NCCCn1ccnc1` here?
The Potency was inconclusive [inhibitor, partial curve].

For `COc1ccc(Cl)cc1CNCCSc1nnnn1-c1ccccc1`, which Potency is on record?
The Potency was inconclusive [inhibitor, single point].

With `COc1ccc(NC(=O)CCCNC(=O)Cn2cnc3sc(C)c(C)c3c2=O)cc1OC` as the molecule, how does the Potency read?
Its Potency is “inactive”.

For `O=C(c1ccc(Cl)c(S(=O)(=O)N2CCCCC2)c1)N1CCCCC1`, which Potency is on record?
The Potency was “inactive”.

For `O[Si](CCCN1CCCCC1)(c1ccc(F)cc1)C1CCCCC1` (stereo unspecified), which Potency is on record?
The Potency was active: 25.9 µM.

Which Potency does the source give for `COc1ccccc1CCNC(=O)C(=O)NCC1OCCN1S(=O)(=O)c1ccc2c(c1)OCCO2` (stereo unspecified) here?
Its Potency is inconclusive [inhibitor, single point].

With `CCn1c(SCC(=O)N2CCc3ccccc3C2)nc2c1c(=O)n(C)c(=O)n2C` as the molecule, how does the Potency read?
Its Potency is “inactive”.

Which Potency does the source give for `Cc1ccc(S(=O)(=O)NCc2cn3ccccc3n2)c(C)c1` here?
The Potency was “inactive”.

For `COc1ccc(N2C(=O)Cc3cc(OC)c(OC)cc3C2c2ccc(F)cc2)cc1` (stereo unspecified), which Potency is on record?
The Potency was inconclusive [inhibitor, single point].

With `CC(CNC(=O)c1ccc(C#N)cc1)NC(=O)c1ccc(C#N)cc1` (stereo unspecified) as the molecule, how does the Potency read?
The Potency was “inactive”.

With `COC(=O)CCC(C(=O)CN1C(=O)c2ccccc2C1=O)N1C(=O)c2ccccc2C1=O` (stereo unspecified) as the molecule, how does the Potency read?
Its Potency is inconclusive [inhibitor, single point].

With `COCCCN1C(=O)C(CC(=O)NCCc2ccccn2)CC(C(=O)N2CCOCC2)=C1C` (stereo unspecified) as the molecule, how does the Potency read?
Its Potency is “inactive”.

Which Potency does the source give for `COc1ccc(CNC(=O)CN2C(=O)CCn3nc(-c4ccccc4)cc32)c(OC)c1` here?
The Potency was “inactive”.

For `CC(=O)Nc1cccc(-c2nnc(SCc3ccccc3C#N)n2C)c1`, which Potency is on record?
Its Potency is “inactive”.

For `CNc1nc(-c2ccccc2CN(C)C)nc2ccccc12`, which Potency is on record?
The Potency was inconclusive [inhibitor, single point].

Which Potency does the source give for `COc1ccc(C(=O)Nc2ccc(C(=O)NCCc3ccc(OC)c(OC)c3)cc2)cc1` here?
Its Potency is “inactive”.

With `O=C(CSc1nc2ccccc2n1Cc1ccccc1)N/N=C/c1ccccc1C(=O)O` as the molecule, how does the Potency read?
The Potency was “inactive”.

With `CC(C)C[C@H](NC(=O)c1nc[nH]c1C(=O)NCC(=O)OC(C)(C)C)C(=O)OC(C)(C)C` as the molecule, how does the Potency read?
The Potency was inconclusive [inhibitor, single point].

With `CC(C)OC(=O)c1ccc(NC(=S)NC(=O)c2cncc(Br)c2)cc1` as the molecule, how does the Potency read?
Its Potency is inconclusive [inhibitor, partial curve].

With `Cc1cccc(Cn2cc(C(=O)Nc3cc(F)ccc3F)ccc2=O)c1` as the molecule, how does the Potency read?
The Potency was active: 16.4 µM.

Which Potency does the source give for `COc1ccc(C(=O)NC(C(=O)OCC(=O)Nc2sccc2C(N)=O)C(C)C)cc1` (stereo unspecified) here?
Its Potency is active: 23.1 µM.

Which Potency does the source give for `CCOc1ccc2oc(C(=O)Nc3cc(C)ccn3)c(C)c2c1` here?
Its Potency is inconclusive [inhibitor, single point].

With `Nc1[nH]c(C(=O)c2ccc(Br)cc2)c(-c2ccc(Br)cc2)c1C(=O)NCCc1c[nH]c2ccccc12` as the molecule, how does the Potency read?
Its Potency is active: 18.4 µM.

Which Potency does the source give for `O=C(Nc1ccc(Cl)c([N+](=O)[O-])c1)c1ccncc1` here?
The Potency was inconclusive [inhibitor, partial curve].

Which Potency does the source give for `COc1ccc(C(CCN2CCCC(C)C2)c2c(OC)cc(OC)c3c2OC(=O)CC3c2cc(OC)c(OC)c(OC)c2)cc1` (stereo unspecified) here?
The Potency was inconclusive [inhibitor, single point].

For `O=C(NC1=NCCS1)C1CCN(S(=O)(=O)c2cc([N+](=O)[O-])ccc2Cl)CC1`, which Potency is on record?
Its Potency is inconclusive [inhibitor, partial curve].

With `Fc1ccc(NC(=S)Nc2ccc3nccnc3c2)cc1` as the molecule, how does the Potency read?
Its Potency is active: 18.4 µM.

With `COc1ccc(C(=O)NCC(=O)NC2=NCCS2)cc1` as the molecule, how does the Potency read?
Its Potency is “inactive”.

For `Cc1cc(C(F)(F)F)nn1CCCNC(=O)c1cnccn1`, which Potency is on record?
The Potency was “inactive”.

For `O=C(COc1cccc2c1CCNC2=O)NC1CCCCC1`, which Potency is on record?
Its Potency is “inactive”.

Which Potency does the source give for `Fc1ccc(Nc2nc(-c3ccoc3)nc3ccccc23)cc1` here?
The Potency was inconclusive [inhibitor, single point].

With `O=c1cc(-c2cc3ccccc3oc2=O)c2ccc(O)cc2o1` as the molecule, how does the Potency read?
Its Potency is inconclusive [inhibitor, single point].

Which Potency does the source give for `COc1ccc(-c2nc(Cn3c(SCc4cccc(C(F)(F)F)c4)nc4cccnc43)c(C)o2)cc1OC` here?
Its Potency is inconclusive [inhibitor, single point].

Which Potency does the source give for `CC(NC(=O)COC(=O)C1CCN(c2ccc(C(F)(F)F)cn2)CC1)c1ccccc1` (stereo unspecified) here?
Its Potency is inconclusive [inhibitor, full curve].

For `CC(NC(=S)Nc1cccc(C(F)(F)F)c1)C(C)(C)C` (stereo unspecified), which Potency is on record?
Its Potency is active: 16.4 µM.

With `Cc1oc2ncn(C)c(=O)c2c1C(=O)NCc1ccc(Cl)cc1` as the molecule, how does the Potency read?
The Potency was inconclusive [inhibitor, single point].

With `Cc1cc(OCC(=O)NCCc2c[nH]c3ccccc23)c2c(C)c(C)c(=O)oc2c1` as the molecule, how does the Potency read?
Its Potency is inconclusive [inhibitor, partial curve].

For `CCCN1CNC(=S)N(c2cccc(C)c2C)C1`, which Potency is on record?
The Potency was “inactive”.

Which Potency does the source give for `Cc1cc(OCC(O)CN2CCN(c3cccc(Cl)c3)CC2)ccc1Cl` (stereo unspecified) here?
Its Potency is inconclusive [inhibitor, partial curve].

With `COc1ccccc1C(=O)NCCNc1nc2cc(C)cc(C)c2cc1C#N` as the molecule, how does the Potency read?
Its Potency is active: 18.4 µM.

For `COc1ccc(C(=O)Nc2cccc(C(=O)NCc3ccco3)c2)cc1`, which Potency is on record?
Its Potency is inconclusive [inhibitor, single point].

Which Potency does the source give for `Cc1cccc(NC(=O)CSc2nnc(CNC(=O)c3ccc(S(=O)(=O)N(C)C)cc3)n2-c2ccccc2)c1` here?
Its Potency is inconclusive [inhibitor, single point].

With `O=c1cc(CN2CCOCC2)c2c(ccc3ccccc32)o1` as the molecule, how does the Potency read?
Its Potency is inconclusive [inhibitor, single point].

Which Potency does the source give for `CCSc1nc2ccccc2n1C(=O)c1ccc(S(=O)(=O)N2CCCCCC2)cc1` here?
The Potency was inconclusive [inhibitor, single point].
